Where “and” joins values, the source holds several entries; their conditions need not be identical. Equal entries are not always repeated. Out of some 310,000 compounds screened, about 18,000 (5.8%) were called active. The shares of active, inactive and inconclusive entries below differ from those in the screen. Calls come from the whole dose curve; as a rule, active = well fitted inhibition curve with a large enough effect; inconclusive = small, poorly fitted or top-dose-only effect, or another doubt; inactive = no such curve, though single readings can be large or run the other way. Potencies beside an inconclusive call are fits to weak or partial responses and may not hold up.
Assay: Primary qHTS for delayed death inhibitors of the malarial parasite plastid, 48 hour incubation
Details: P. falciparum luciferase growth in erythrocytes; series mostly up to 28.7 µM
Procedure, shortened: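 Compounds are pin-transferred into medium, infected erythrocytes (2% hematocrit, 0.1% parasitemia final) are added, and plates sit one parasite generation at 37 C in 5% CO2. Detection reagent is then added and luminescence measured.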
Potency is the fitted concentration of half-maximal effect; tags give direction and shape of the fitted curve.

Compound | Potency
O=C(CCc1c[nH]c2ccccc12)NCc1cccc(Cl)c1 | inactive
CC(C)=CCc1c(O)ccc2c1OC(c1ccc(O)c(O)c1)CC2=O (centres undefined) | inactive
Cn1nc(C(=O)N2CCN(c3ccc(F)cc3)CC2)c2c1-c1ccccc1S(=O)(=O)C2 | inconclusive: 9.28 µM [inhibitor, single point]
CCCn1c(N)c(C(=O)CSc2nnc(-c3ccoc3C)n2C)c(=O)n(C)c1=O | inconclusive: 18.5 µM [inhibitor, single point]
CCOc1ccc(S(=O)(=O)N2CCC(C(=O)OC(C)C(=O)N3CCOCC3)CC2)cc1 (centres undefined) | inactive
Cc1ccccc1NC(=O)CCC(=O)N/N=C/c1cccnc1 | inconclusive: 20.8 µM [inhibitor, partial curve, poor fit]
O=C(Oc1ccc2c(=O)c(Oc3ccc4ccccc4c3)coc2c1)c1cncc(Br)c1 | inactive
Cc1cc(C)cc(NC(=S)NCCc2c[nH]c3ccccc23)c1 | inconclusive: 13.1 µM [inhibitor, single point]
COc1ccc(CN2CCN(C(=O)CCC(=O)c3ccc(C)s3)CC2)cc1OC | inconclusive: 18.5 µM [inhibitor, single point]
COc1ccc([C@@H]2[C@@H]3C(=O)N(C(C)(C)C)C(=O)[C@@H]3[C@]3(Cc4ccccc4)C(=O)N(c4ccc(C)cc4)C(=O)N23)cc1 | inconclusive: 11.7 µM [inhibitor, single point]
CCOC(=O)c1c(C)[nH]c(=S)c(C#N)c1-c1ccc(OC)cc1 | inconclusive: 18.5 µM [inhibitor, single point]
Cc1cccc(C)c1NC(=O)c1cccnc1 | inconclusive: 0.522 µM [inhibitor, full curve, poor fit]
COc1ccc(Cn2c(CCC(=O)Nc3ccc(CC#N)cc3)nc3cccnc32)cc1 | inconclusive: 14.7 µM [inhibitor, partial curve, poor fit]
Cc1ccc(NC(=O)CSc2nnc(-c3cc(C)[nH]n3)n2N)c(C)c1 | inconclusive: 16.5 µM [inhibitor, single point]
O=C(CCCC(=O)NCc1ccc(F)cc1)NCc1ccc(F)cc1 | inactive
O=C(Cc1ccc(Br)cc1)N1CCN(Cc2ccccc2)CC1 | inconclusive: 9.28 µM [inhibitor, partial curve, poor fit]
CCc1cc(=O)oc2cc(C)cc(OCC(=O)N3CCC(C(=O)NC(C)C)(c4ccccc4)CC3)c12 | active: 10.4 µM
CN(Cc1ccccc1)CC(O)COc1ccc(CNCc2ccc(Cl)s2)cc1 (centres undefined) | active: 5.86 µM
c1nnnn1C12CC3CC(CC(C3)C1)C2 | inactive
CCN(CC(=O)Nc1c(F)cccc1F)C(=O)c1ccc2c(=O)n3c(nc2c1)CCC3 | inconclusive: 18.5 µM [inhibitor, single point]
CCN(CC)CCCNC(=O)c1cc2c(=O)[nH]c3ccc(C)cc3c2s1 | inconclusive: 11.7 µM [inhibitor, single point]
Cc1cc(Cl)ccc1OCC(O)CN1C(C)CCCC1C (centres undefined) | inconclusive: 13.1 µM [inhibitor, single point]

Compound | Potency
CC(=O)C1=C(C)NC(SCC(=O)Nc2nccs2)=C(C#N)C1c1ccccc1Cl (centres undefined) | inconclusive: 14.7 µM [inhibitor, partial curve]
CN(CCOc1ccccc1)CC(=O)Nc1ccc(S(=O)(=O)N2CCCC2)cc1 | inactive
Cc1cc(Nc2cccc([N+](=O)[O-])c2)c2ccccc2n1 | inconclusive: 16.5 µM [inhibitor, partial curve, poor fit]
Cc1ccccc1C(=O)N1CCC(C(=O)Nc2ccc(S(=O)(=O)N3CCCC3)cc2)CC1 | inconclusive: 13.1 µM [inhibitor, single point]
O=C(NN1C(=O)/C(=C\c2cccnc2)SC1=S)c1ccco1 | inactive
Clc1cccc(-c2ccc3ncnc(NCc4cccnc4)c3c2)c1 | inconclusive: 18.5 µM [inhibitor, single point]
COc1ccc(C2CC(=O)c3c(ccc4ccccc34)N2)cc1OC (centres undefined) | inconclusive: 18.5 µM [inhibitor, partial curve, poor fit]
COc1cccc(C(=O)NC(c2ccccc2)C2CCCC2)c1 (centres undefined) | inconclusive: 10.4 µM [inhibitor, single point]
CCOC(=O)C1CCCN(S(=O)(=O)c2ccc(OC)c3ccccc23)C1 (centres undefined) | inconclusive: 13.1 µM [inhibitor, single point]
Cc1cc(-c2ccc(C)c(S(=O)(=O)NCC3CCN(Cc4ccc(F)cc4)CC3)c2)on1 | inconclusive: 8.28 µM [inhibitor, partial curve]
Cc1ccc(-c2nn(-c3cccc(F)c3)cc2CN(Cc2nccn2C)C(C)C)o1 | inconclusive: 1.65 µM [inhibitor, full curve]
CCCc1cc(=O)[nH]c(SCC(=O)N(C)CC(=O)Nc2ccc(F)cc2)n1 | inconclusive: 14.7 µM [inhibitor, single point]
Cc1nc(CSc2ccc(Cl)cc2)cc(N2CC(C)OC(C)C2)n1 (centres undefined) | inconclusive: 7.38 µM [inhibitor, partial curve, poor fit]
COc1ccc(-n2c(C)cc(C(=O)COC(=O)Cn3cnc4ccccc43)c2C)cc1 | active: 13.1 µM
OCCC1CN(C2CCN(c3ccccc3)CC2)CCN1Cc1ccc(F)c(F)c1 (centres undefined) | inconclusive: 10.4 µM [inhibitor, single point]
CC(C)Oc1ccc(S(=O)(=O)N2CCOCC2)cc1NC(=O)C1COc2ccccc2O1 (centres undefined) | active: 11.7 µM
CCOc1ccc(CCNC(=O)c2ccc(Cl)c(S(=O)(=O)N3CCOCC3)c2)cc1OCC | active: 11.7 µM
CCCn1c(N)c(N(CCOC)C(=O)Cc2ccc(S(=O)(=O)N3CCOCC3)s2)c(=O)[nH]c1=O | inactive
CC(=O)NC(C)c1cc(Cl)c2cccnc2c1O (centres undefined) | inconclusive: 8.28 µM [inhibitor, single point] and inconclusive: 16.5 µM [inhibitor, single point]
CC(=O)NC(=O)c1ccc(-c2ccc(Cl)cc2)o1 | inconclusive: 18.5 µM [inhibitor, single point]
COCC(=O)Nc1sc2c(c1C(=O)OC)CCC(C)C2 (centres undefined) | inactive
COc1cc(OC)c(NC(=O)C(=O)CC(=O)c2ccc(C)cc2C)cc1Cl | inconclusive: 16.5 µM [inhibitor, single point]

Compound | Potency
COc1ccc(N(CC(=O)NCc2ccc(Cl)cc2)S(=O)(=O)c2ccccc2[N+](=O)[O-])c(OC)c1 | active: 8.28 µM
COc1cc(OC)cc(C(=O)NNC(=O)c2ccc3ccccc3n2)c1 | inconclusive: 18.5 µM [inhibitor, single point]
Cc1cc(C)c2nc(N3CCCC(C(=O)NCCCN4CCOCC4)C3)sc2c1 (centres undefined) | inactive
COc1cc(OC)cc(-c2c(-c3cccs3)c3cc(-c4ccc(OC)c(F)c4)ccc3n2C)c1 | inconclusive: 2.94 µM [inhibitor, partial curve, poor fit]
COc1ccccc1Cn1c(=S)[nH]c2cc(C(=O)NCc3cccnc3)ccc2c1=O | inconclusive: 18.5 µM [inhibitor, single point]
C=CCc1cccc(/C=N/NC(=O)CCCNc2ccc(C)cc2)c1O | inactive
COc1ccc(C2N=C(N)N=C(N)N2c2ccccc2)cc1OC (centres undefined) | inconclusive: 5.86 µM [inhibitor, partial curve, poor fit]
O=C(O)c1ccc(S(=O)(=O)NCC2CCCCC2)cc1 | inactive
COc1ccc2nc(/C=N/NC(=O)CCCCCNC(=O)OC(C)(C)C)ccc2c1 | inconclusive: 2.33 µM [inhibitor, full curve, poor fit]
CCc1ccc(NC(=O)CN2C(=O)CC(C)S(=O)(=O)c3ccccc32)cc1 (centres undefined) | inconclusive: 10.4 µM [inhibitor, partial curve, poor fit]
O=C(COC(=O)CCS(=O)(=O)c1ccc(Cl)cc1)Nc1ncc(Cl)cc1Cl | inconclusive: 0.117 µM [inhibitor, full curve, poor fit]
CCCN(CC1CCCO1)C(=O)c1cc(COc2cccc(OC)c2)on1 (centres undefined) | inconclusive: 18.5 µM [inhibitor, single point]
CC(C)c1onc(C(=O)N2CCOCC2)c1[N+](=O)[O-] | inconclusive: 18.5 µM [inhibitor, single point]
Cc1cccc(NC(=O)c2ccc(F)c(S(=O)(=O)N3CCC4(CC3)OCCO4)c2)c1 | inconclusive: 18.5 µM [inhibitor, single point]
Cc1cccc(NS(=O)(=O)c2cc(C(=O)N3CCCCCC3)ccc2C)c1 | inconclusive: 10.4 µM [inhibitor, partial curve]
CC(C)C12CN3CC(C(C)C)(CN(C1)C3c1ccccc1O)C2=O (centres undefined) | inconclusive: 18.5 µM [inhibitor, single point]
O=C(CN1CSCC1=O)N1CCN(S(=O)(=O)c2cc(C(F)(F)F)ccc2Cl)CC1 | inconclusive: 10.4 µM [inhibitor, single point]
Cc1ccnc(NCn2nnc3ccccc32)c1 | inconclusive: 18.5 µM [inhibitor, single point]
O=C(CNc1cccc(C(F)(F)F)c1)N/N=C/c1cn(-c2ccccc2)nc1-c1ccccc1 | inconclusive: 18.5 µM [inhibitor, single point]
CC[C@@]12C(=O)N(c3cccc(Cl)c3)C(=O)N1[C@H](c1cccc(C)c1)[C@@H]1C(=O)N(Cc3ccccc3)C(=O)[C@@H]12 | active: 4.65 µM

From PubChem BioAssay AID504832 (National Center for Advancing Translational Sciences (NCATS), 2011)
